In PubChem BioAssay (NCATS):
Inconclusive results, whose numbers are uncertain, are shown with a selection of clear calls. For some of these results: Potencies of inconclusive entries are doubtful fits and often do not repeat. Calls of active or inactive are those of the source. Unless noted, the call rests on the fitted dose curve; in most records, active means well fitted curve in the direction sought with a large enough effect; inconclusive means small, poorly fitted or top-dose-only effect, or another doubt; inactive means no such curve, though single readings can be large; an effect the other way counts as inactive or inconclusive.

Tests used:
[1] = molecular target: Endonuclease 4 (Escherichia coli (strain K12)) (UniProt P0A6C1); experiment: Counterscreen for APE1 Inhibitors: qHTS Validation Assay for Inhibitors of Endonuclease IV (AID 1708); further: potency means the concentration at half of the fitted maximal effect
Outline: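 Measured as reaction progress, the fluorescence gain between first and third kinetic reads after adding 50 nM TAMRA/BHQ-2 THF duplex to 2 nM enzyme preincubated 15 min with compound; 2 mM MgCl2, pH 7.5.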

[2] = qHTS for differential inhibitors of proliferation of Plasmodium falciparum line 7G8 (AID 1815);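 further: potency means the concentration at half of the fitted maximal effect; parasite growth measured after three days of incubation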
[3] = qHTS for differential inhibitors of proliferation of Plasmodium falciparum line GB4 (AID 1816); conditions: Potency: Plasmodium falciparum GB4 proliferation inhibition;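 further: potency means the concentration at half of the fitted maximal effect; parasite growth measured after 72 h incubation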
[4] = qHTS for differential inhibitors of proliferation of Plasmodium falciparum line D10 (AID 1877);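 further: potency means the concentration at half of the fitted maximal effect; parasites grown with compound for 72 h before DNA staining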
[5] = qHTS for differential inhibitors of proliferation of Plasmodium falciparum line Dd2 (AID 1882); conditions: Potency: Plasmodium falciparum Dd2 proliferation inhibition; further: potency means the concentration at half of the fitted maximal effect; nearly all actives have a fitted effect of over 65% in size
Outline: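 RBC culture, 0.3% parasitemia / 2.5% Hct final; cpd added by pin tool in DMSO; 72 h, 37 C, 5% CO2; lysis buffer + SYBR Green I, o/n RT dark; FI 485/535; norm. to artemisinin 0.29 uM and DMSO.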

[6] = qHTS for differential inhibitors of proliferation of Plasmodium falciparum line HB3 (AID 1886); conditions: Potency: Plasmodium falciparum HB3 proliferation inhibition;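 further: potency means the concentration at half of the fitted maximal effect; parasites grown with compound for 72 h before SYBR Green readout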
[7] = molecular target: RecQ-like DNA helicase BLM (Homo sapiens) (UniProt P54132); experiment: qHTS Validation Assay for Inhibitors of Bloom's syndrome helicase (BLM) (AID 2364); further: potency means the concentration at half of the fitted maximal effect;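 on activity change, negative = inhibition: plate controls were DMSO vehicle for no effect and enzyme-free control for full effect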
UniProt P54132, sequence (P54132 whole entry, looked up): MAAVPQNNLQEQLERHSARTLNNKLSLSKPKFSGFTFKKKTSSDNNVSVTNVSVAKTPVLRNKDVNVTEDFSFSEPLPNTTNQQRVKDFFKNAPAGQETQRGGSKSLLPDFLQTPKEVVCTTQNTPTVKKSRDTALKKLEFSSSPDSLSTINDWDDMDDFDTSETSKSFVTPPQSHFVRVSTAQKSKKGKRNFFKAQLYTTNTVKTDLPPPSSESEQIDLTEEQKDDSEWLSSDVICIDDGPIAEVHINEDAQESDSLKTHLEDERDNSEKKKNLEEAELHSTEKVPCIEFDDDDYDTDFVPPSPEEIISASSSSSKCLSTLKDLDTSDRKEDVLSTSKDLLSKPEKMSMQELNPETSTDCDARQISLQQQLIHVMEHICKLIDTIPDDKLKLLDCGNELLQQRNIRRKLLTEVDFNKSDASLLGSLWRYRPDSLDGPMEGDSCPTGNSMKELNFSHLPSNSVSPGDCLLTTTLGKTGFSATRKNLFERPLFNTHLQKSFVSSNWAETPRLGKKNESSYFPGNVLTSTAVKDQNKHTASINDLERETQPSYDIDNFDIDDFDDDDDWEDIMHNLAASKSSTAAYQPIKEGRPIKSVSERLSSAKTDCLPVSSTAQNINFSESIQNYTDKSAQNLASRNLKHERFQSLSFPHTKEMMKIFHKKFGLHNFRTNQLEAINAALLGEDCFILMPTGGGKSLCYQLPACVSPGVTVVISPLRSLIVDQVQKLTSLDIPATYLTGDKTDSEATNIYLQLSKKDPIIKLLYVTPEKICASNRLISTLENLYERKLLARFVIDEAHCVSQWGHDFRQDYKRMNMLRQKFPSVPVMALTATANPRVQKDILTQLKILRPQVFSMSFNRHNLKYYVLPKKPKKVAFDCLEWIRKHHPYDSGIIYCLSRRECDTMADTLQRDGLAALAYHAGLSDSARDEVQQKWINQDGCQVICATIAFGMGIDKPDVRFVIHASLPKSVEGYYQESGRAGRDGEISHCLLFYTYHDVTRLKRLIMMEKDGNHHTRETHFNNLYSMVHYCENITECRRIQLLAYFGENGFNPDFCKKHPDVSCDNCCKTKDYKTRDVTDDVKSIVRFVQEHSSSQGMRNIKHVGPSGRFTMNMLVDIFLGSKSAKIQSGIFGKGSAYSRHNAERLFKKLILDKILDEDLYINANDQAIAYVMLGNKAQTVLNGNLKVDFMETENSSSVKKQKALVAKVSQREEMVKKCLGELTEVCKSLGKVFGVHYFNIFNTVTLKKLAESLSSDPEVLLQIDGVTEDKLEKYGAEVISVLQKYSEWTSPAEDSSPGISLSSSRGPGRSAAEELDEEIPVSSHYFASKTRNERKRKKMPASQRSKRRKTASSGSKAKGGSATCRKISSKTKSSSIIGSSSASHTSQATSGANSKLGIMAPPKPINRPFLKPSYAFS
Outline: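 BLM 50 nM in 25 mM Tris-HCl pH 8.0, 5 mM NaCl, 2 mM MgCl2, 1 mM DTT, 0.01% Tween-20, 2.5 ug/ml poly(dI-dC); 15 min cpd preinc, RT. Start: 200 nM forked DNA + 2 mM ATP (final). TAMRA read, 2 reads 2 h apart.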

[8] = Validation screen for small molecules that induce DNA re-replication in MCF 10A normal breast cells (AID 463097); further: potency means the concentration at half of the fitted maximal effect; nearly all actives have a fitted effect of over 60% in size
Outline: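 Following 48 hr compound incubation (37 C, 5% CO2), MCF 10A cells receive Hoechst for 40 min at 37 C. Nuclei are then scanned (excitation 405 nm, emission 500-530 nm) for total fluorescence intensity.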

[9] = Quantitative high throughput screen for delayed death inhibitors of the malarial parasite plastid, 96 hour incubation (AID 488745); further: potency means the concentration at half of the fitted maximal effect; nearly all actives have a fitted effect of over 70% in size
Outline: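 Two-generation (96 h) exposure of luciferase-reporter P. falciparum in erythrocytes, 2% hematocrit, 0.1% parasitemia final, 37 C, 5% CO2, RPMI 1640 with 0.5% Albumax. Growth inhibition scored by reduced luminescence.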

[10] = Quantitative high throughput screen for delayed death inhibitors of the malarial parasite plastid, 48 hour incubation (AID 488752); further: potency means the concentration at half of the fitted maximal effect; nearly all actives have a fitted effect of over 65% in size
Outline: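 Cultures: infected erythrocytes at final 2% hematocrit and 0.1% parasitemia in Albumax-supplemented RPMI. Parasites express integrated firefly luciferase. Incubation with compound lasts 48 h before luminescent detection of remaining reporter activity.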

[11] = Validation screen for small molecules that induce DNA re-replication in SW480 colon adenocarcinoma cells (AID 504364); further: potency means the concentration at half of the fitted maximal effect
Outline: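 Hoechst-stained SW480 nuclei, imaged at 405 nm excitation after 48 hr compound exposure, were counted for elevated DNA content as the re-replication signal.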

[12] = NFAT Signaling Pathway (AID 444; active means well fitted curve in either direction with a large enough effect, not every such curve was filed as active; inconclusive means small, poorly fitted or top-dose-only effect, or another doubt;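 further: carbachol stimulus at about its EC50 of 1 µM final; on the % scale 0 is the no-effect control and ±100 the full control effect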); conditions: Jurkat NFAT-bla M1, carbachol, beta-lactamase ratio, 5 h; at 17.2 µM (top of the series) unless noted
Outline: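 Jurkat cells carrying an NFAT-driven β-lactamase reporter and co-transfected muscarinic M1 receptor were treated with compound plus carbachol (1 uM final, an EC50 level) for 5 h at 37 °C. CCF4 loading followed for 1 h at RT; 460/530 nm ratio gave %activity.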

[13] = qHTS Assay for Identification of Small Molecule Antagonists for NFkB Signaling Pathway (AID 895; active means well fitted inhibition curve with a large enough effect in the signal ratio, with a control signal flat, not every such curve was filed as active; inconclusive means small, poorly fitted or top-dose-only effect, or effect the other way, or a change in a side signal; the % refers to the signal ratio; further: on the % scale 0 is the no-effect control and ±100 the full control effect); conditions: NFkB beta-lactamase reporter cells, FRET ratio 460/530, stimulated with 10 pM TNF alpha; activity change, negative = inhibition: at 38.3 µM (top of the series)
Outline: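 NFkB-bla ME-180 cervical carcinoma cells with beta-lactamase reporter under NFkB response element; compounds added, then TNF alpha at 10 pM final (EC50), 5 h at 37 C. LiveBLAzer substrate 2 h, room temperature; emission 460/530 nm at 405 nm excitation.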

[14] = qHTS Assay for Identification of Small Molecule Agonists for Hypoxia Response Element Signaling Pathway (AID 914; active means well fitted activation curve with a large enough effect in the signal ratio, with a control signal flat, not every such curve was filed as active; inconclusive means small, poorly fitted or top-dose-only effect, or effect the other way, or a change in a side signal; the % refers to the signal ratio; further: potency means the concentration at half of the fitted maximal effect; on activation: top concentration of the series differs between compounds; % of control where 0% means no effect); conditions: ME-180 (cervical carcinoma) HRE-bla reporter, beta-lactamase ratio, CoCl2, 17 h; activation: active compounds read high
Outline: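 Cells were plated overnight, pin-dosed with compound in a titration series, co-stimulated with EC50 CoCl2 and incubated 17 hours at 37 degrees Celsius. CCF4 substrate was then loaded, and AC50 values came from the 460nm/530nm ratio.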

[15] = qHTS Assay for Identification of Small Molecule Antagonists for Thrombopoietin (TPO) Signaling Pathway (AID 918); conditions: TPO-dependent cell signaling reporter, antagonist mode; activity change, negative = inhibition: at 38.5 µM (top of the series); further: nearly all actives have a fitted effect of over 60% in size
Outline: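 Antagonist mode at EC50 TPO (26 pM) in IL-3-free medium; murine Ba/F3 cells with human TPO receptor and GPIIb-promoter luciferase, 24 hrs at 37 C before luminescent detection.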

[16] = molecular target: Muscarinic acetylcholine receptor M1 (Rattus norvegicus) (UniProt P08482); experiment: qHTS Assay for Antagonists of Acetylcholine Muscarinic M1 Receptor: Kinetic Measurement of Intracellular Calcium Response (AID 943); further: nearly all actives have a fitted effect of over 75% in size; further: potency means the concentration at half of the fitted maximal effect;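 on activity change, negative = inhibition: Fluo-4 calcium signal as peak divided by basal fluorescence over 4 min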
UniProt P08482, sequence (P08482 whole entry, looked up): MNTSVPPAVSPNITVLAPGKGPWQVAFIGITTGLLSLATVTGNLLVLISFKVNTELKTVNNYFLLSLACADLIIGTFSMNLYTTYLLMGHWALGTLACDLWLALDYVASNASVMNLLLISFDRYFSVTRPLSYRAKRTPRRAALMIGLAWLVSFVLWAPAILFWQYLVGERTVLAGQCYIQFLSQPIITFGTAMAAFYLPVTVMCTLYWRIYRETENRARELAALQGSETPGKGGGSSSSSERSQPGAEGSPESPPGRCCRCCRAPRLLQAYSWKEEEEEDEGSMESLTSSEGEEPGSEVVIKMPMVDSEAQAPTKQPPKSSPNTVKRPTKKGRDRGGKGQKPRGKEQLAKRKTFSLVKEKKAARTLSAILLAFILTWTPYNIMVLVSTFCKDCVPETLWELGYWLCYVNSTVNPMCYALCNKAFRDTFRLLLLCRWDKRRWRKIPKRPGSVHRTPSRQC
Outline: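 Quantitative HTS in CHO-M1 (rat receptor) cells: 10 min compound exposure ahead of 100 nM carbachol, Fluo-4 fluorescence followed 4 min, value expressed as peak-to-basal ratio.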

[17] = molecular target: Muscarinic acetylcholine receptor M1 (Rattus norvegicus) (UniProt P08482); experiment: qHTS Assay for Antagonists of Acetylcholine Muscarinic M1 Receptor: Measurement of IP-One Response (AID 944); further: potency means the concentration at half of the fitted maximal effect; nearly all actives have a fitted effect of over 75% in size
[18] = qHTS for differential inhibitors of proliferation of Plasmodium falciparum line 3D7 (AID 1876); further: potency means the concentration at half of the fitted maximal effect
[19] = molecular target: Rap guanine nucleotide exchange factor 3 (Homo sapiens) (UniProt O95398); experiment: Counterscreen qHTS for agonist of cAMP-regulated guanine nucleotide exchange factor 3 (EPAC1) (AID 1645889); conditions: EPAC1 Rap1B-BODIPY-GDP exchange, fluorescence; activation: at 154 µM (top of the series) unless noted; further: % of control where 0% means no effect; nearly all actives have a fitted effect of over 40% in size
Outline: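 Measured: fluorescence of BODIPY-GDP bound to Rap1B, which falls as exchange proceeds. Conditions include 50 uM competing GDP, 5 and 30 min reads, and a later cAMP challenge for antagonist detection.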

[20] = molecular target: Mitogen-activated protein kinase 10 (Mus musculus) (UniProt Q61831); experiment: JNK3 AlphaScreen Assay (AID 530; active means well fitted curve in either direction with a large enough effect, not every such curve was filed as active; inconclusive means small, poorly fitted or top-dose-only effect, or another doubt;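 further: kinase came from lysate of stimulated human HepG2 cells; signal reports phosphorylation of biotinylated GST-cJun 1-79 at Ser73 with 10 µM ATP; potency means the concentration at half of the fitted maximal effect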); conditions: JNK3 lysate, c-Jun phosphorylation; activity change, negative = inhibition: at 57.1 µM (top of the series)
Outline: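 Biotinylated GST-cJun(1-79) served as substrate for JNK3 in HepG2 lysates stimulated with IL-1beta and TNF-alpha. ATP was 10 uM final, pH 7.6. Ser73 phosphorylation was quantified by AlphaScreen (680 nm excitation).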

[21] = molecular target: 3',5'-cyclic-AMP phosphodiesterase 4B (Homo sapiens) (UniProt Q07343); experiment: qHTS Assay for Inhibitors of PDE-IV (AID 607; active means well fitted activation curve with a large enough effect in the main read-out, with a control signal flat, not every such curve was filed as active; inconclusive means small, poorly fitted or top-dose-only effect, or effect the other way, or a change in a side signal; further: potency means the concentration at half of the fitted maximal effect); conditions: HEK293 ACTOne CNG channel cells, membrane potential fluorescence; activation (PDE inhibition): at 22.9 µM (top of the series)
UniProt Q07343, sequence (Q07343 whole entry, looked up): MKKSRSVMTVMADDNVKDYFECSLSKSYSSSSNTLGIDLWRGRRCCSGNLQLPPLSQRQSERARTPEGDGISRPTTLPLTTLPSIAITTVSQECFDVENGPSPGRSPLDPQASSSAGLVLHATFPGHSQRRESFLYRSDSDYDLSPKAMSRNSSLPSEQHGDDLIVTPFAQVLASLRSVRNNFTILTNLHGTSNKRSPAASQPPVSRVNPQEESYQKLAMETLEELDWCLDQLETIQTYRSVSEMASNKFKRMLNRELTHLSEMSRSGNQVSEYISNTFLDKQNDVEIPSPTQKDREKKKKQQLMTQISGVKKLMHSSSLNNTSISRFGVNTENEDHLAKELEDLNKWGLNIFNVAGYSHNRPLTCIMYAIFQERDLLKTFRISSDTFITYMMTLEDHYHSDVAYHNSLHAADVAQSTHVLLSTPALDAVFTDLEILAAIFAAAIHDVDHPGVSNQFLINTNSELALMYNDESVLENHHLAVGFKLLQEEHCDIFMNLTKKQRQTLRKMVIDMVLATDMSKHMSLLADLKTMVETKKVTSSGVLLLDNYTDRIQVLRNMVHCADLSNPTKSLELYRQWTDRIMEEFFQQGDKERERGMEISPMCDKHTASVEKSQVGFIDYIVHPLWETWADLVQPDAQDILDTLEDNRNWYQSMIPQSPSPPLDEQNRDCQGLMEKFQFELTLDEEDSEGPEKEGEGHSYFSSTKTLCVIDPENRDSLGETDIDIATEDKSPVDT
Outline: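 Cell-based read-out of cAMP via a modified cyclic nucleotide-gated channel and membrane potential dye (535/590 nm) in HEK293 cells expressing PDE4 endogenously. Compounds tested up to 22.9 uM final; 100 uM RO 20-1724 reference.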

[22] = qHTS Assay for Identification of Small Molecule Agonists for Thrombopoietin (TPO) Signaling Pathway (AID 917); conditions: TPO signaling pathway reporter cells, agonist qHTS, stimulated with TPO at its EC50; activity, positive = activation: at 38.5 µM (top of the series); further: on the % scale 0 is the no-effect control and ±100 the full control effect
Outline: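 Human TPO receptor–transfected Ba/F3 cells (murine, IL-3-dependent) in IL-3-deficient medium; compounds plus TPO at EC50, 26 pM final; 24 hrs, 37 C; GpIIb-luciferase luminescence after 10 min RT detection.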

[23] = HTS Assay for Allosteric Antagonists of the Human D2 Dopamine Receptor: Hit Validation in HTRF (AID 624455); conditions: Cells stably expressing D1 dopamine receptor, inhibition mode; at 46.1 µM (top of the series);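 further: stable D1 dopamine receptor cell line scored for blocking the D1 response; on the % scale 0 is the no-effect control and ±100 the full control effect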
Outline: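 Validation of hits used D1 receptor stably expressed in cells with HTRF detection of response inhibition; origin screen measured calcium flux following EC80 dopamine in a force-coupled, inducible Hek293 Trex D2 cell line.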

[24] = molecular target: Metallo-beta-lactamase type 2 (Klebsiella pneumoniae) (UniProt C7C422); experiment: qHTS to identify inhibitors of the New Delhi Metallo-beta-lactamase (NDM): assay validation screen against the NCATS LOPAC Collection (AID 1794843); further: potency means the concentration at half of the fitted maximal effect
UniProt C7C422, sequence (C7C422 whole entry, looked up): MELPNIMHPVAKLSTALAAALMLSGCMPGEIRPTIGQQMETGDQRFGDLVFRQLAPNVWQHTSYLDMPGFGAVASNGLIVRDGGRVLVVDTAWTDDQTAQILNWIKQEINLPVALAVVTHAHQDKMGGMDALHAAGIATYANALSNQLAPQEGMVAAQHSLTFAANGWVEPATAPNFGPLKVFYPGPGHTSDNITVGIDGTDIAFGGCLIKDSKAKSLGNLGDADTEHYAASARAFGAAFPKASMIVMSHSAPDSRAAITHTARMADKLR
Outline: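 Absorbance at 485 nm from nitrocefin turnover (50 uM solution added), read at plateau, gives the read-out. Compounds in DMSO were incubated first with 2 nM final NDM-1 in pH 7.0 HEPES buffer containing 1 uM ZnSO4 and 0.01% Tween20.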

[25] = molecular target: Phospholipid hydroperoxide glutathione peroxidase GPX4 (Homo sapiens) (UniProt P36969); experiment: Primary qHTS Assay for Inhibitors of Recombinant Selenoprotein Glutathione Peroxidase 4 (GPX4) (AID 1845192); further: nearly all actives have a fitted effect of over 65% in size
UniProt P36969, sequence (P36969 whole entry, looked up): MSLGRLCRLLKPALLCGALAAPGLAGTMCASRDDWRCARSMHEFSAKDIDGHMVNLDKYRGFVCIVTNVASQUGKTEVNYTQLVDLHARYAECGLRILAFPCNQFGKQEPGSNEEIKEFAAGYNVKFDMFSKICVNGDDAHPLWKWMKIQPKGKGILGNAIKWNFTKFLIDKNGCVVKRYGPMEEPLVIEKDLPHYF
Outline: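 qHTS, GR-coupled: GPX4 200 nM + cpd 30 min RT → GSH 1 mM, NADPH 0.5 mM, GR 100 nM → CHP 0.5 mM start; fluor 340/450 at t0 and t15 min; no-enzyme wells as control.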
Tags describe the fitted curve by direction and shape or compound fluorescence and quenching.

CN(C)C1C(=O)C(C(N)=O)=C(O)[C@@]2(O)C(=O)C3=C(O)c4c(O)ccc(Cl)c4[C@@H](O)C3C[C@@H]12 (some centres not stated)
inconclusive: Potency [1] 0.447 µM [inhibitor, full curve, poor fit] | Potency [2] 1 µM [inhibitor, full curve] | Potency [3] 1.12 µM [inhibitor, full curve] | Potency [4] 5.01 µM [inhibitor, partial curve] | Potency [5] 1.12 µM [inhibitor, full curve] | Potency [6] 1.41 µM [inhibitor, full curve] | Potency [7] 35.5 µM [inhibitor, partial curve] | Potency [8] 25.1 µM [activator, single point] | Potency [11] 29.1 µM [activator, partial curve, poor fit]
active: Potency [9] 0.738 µM | Potency [10] 6.57 µM

N=C(N)SCCc1cccc(CCSC(=N)N)c1
inconclusive: activity change, negative = inhibition [12] -49.7% [inhibitor] [at 38 µM] | activation [14] -4.06% | activity change, negative = inhibition [15] -27.7% [phenotype inactive] | Potency [17] 15.8 µM [inhibitor, partial curve, poor fit] | Potency [10] 10.4 µM [inhibitor, single point]
inactive: Potency [13] | Potency [1] | Potency [7]
active: Potency [16] 4.47 µM | Potency [3] 2.24 µM | Potency [18] 3.16 µM | Potency [4] 10 µM | Potency [6] 8.91 µM | Potency [9] 13.1 µM

COC(=O)c1cc(Br)c(=O)n(Cc2ccc3c(c2)OCO3)c1
inconclusive: Potency [14] 12.6 µM [inhibitor, single point]
inactive: activity change, negative = inhibition [12] 2.18% | activation [19] 2.16% [at 30.8 µM]

N[C@@H](CC(=O)O)C(=O)O
inconclusive: Potency [20] 0.01 µM [activator, full curve, poor fit] | Potency [21] 19 µM [inhibitor, single point] | Potency [7] 3.55 µM [inhibitor, full curve, poor fit] | Potency [24] 5.01 µM [inhibitor, partial curve]
inactive: Potency [22] | Potency [16] | Potency [1] | activity, negative = inhibition [23] -2.09% | Potency [25]
